Data taken from the supplement of paper PMC12217912.
This is one part of the list. Sequences were assembled here from the parent chain. Values near 0.05 are background.

B1: TEV protease; numbered along this chain (parent)
chain: MGESLFKGPRDYNPISSSICHLTNESDGHTTSLYGIGFGPFIITNKHLFRRNNGTLVVQSLHGVFKVKDTTTLQQHLVDGRDMIIIRMPKDFPPFPQKLKFREPQREERICLVTTNFQTKSMSSMVSDTSCTFPSGDGIFWKHWIQTKDGQCGSPLVSTRDGFIVGIHSASNFTNTNNYFTSVPKNFMELLTNQEAQQWVSGWRLNADSVLWGGHKVFMVKPEEPFQPVKEATQL

Variants of: B1
Assay: raw area under fraction-flipped curve 0-4 h after induction (AUC4h, not background-subtracted), DNA-recorder readout of cleavage of the substrate (dimensionless); higher = more cleavage of the substrate by the protease variant
Details: temperature: 34 °C; time window: 0-4 h after rhamnose induction
Protocol: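 In vivo DNA recorder in E. coli TOP10(DE3) ΔrhaA at 34 °C. Each TEVp single-site mutant (parent TEVp 0) is paired with a single-site variant of the 7-mer TEVs (canonical ENLYFQ|S). The substrate sits between flexible linkers in a Bxb1-sfGFP-TEVs-SsrA fusion, so cleavage stabilises Bxb1 and speeds flipping of a recombination array, read by NGS. The value is the raw area under the fraction-flipped curve over 0-4 h after rhamnose induction (AUC4h), with ≥20 reads per time point. It is not background-subtracted; inactive controls average about 0.047.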
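Also: Bxb1 expression induced with 0.2% (w/v) L-rhamnose at OD600 near 0.5, cultures sampled hourly, flipped fraction per protease–substrate barcode pair counted by paired-end Illumina sequencing.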

Row | Variant | area with substrate ENLAFQS | area with substrate ENLDFQS | area with substrate ENLEFQS | area with substrate ENLFFQS | area with substrate ENLGFQS | area with substrate ENLHFQS | area with substrate ENLKFQS | area with substrate ENLLFQS | area with substrate ENLNFQS | area with substrate ENLPFQS | area with substrate ENLRFQS | area with substrate ENLSFQS | area with substrate ENLTFQS | area with substrate ENLVFQS | area with substrate ENLWFQS | area with substrate ENLCFQS | area with substrate ENLIFQS | area with substrate ENLMFQS | area with substrate ENLQFQS
1 | MGESLFKGPRDGNPISSSICHLTNESDGHTTSLYGIGFGPFIITNKHLFRRNNGTLVVQSLHGVFKVKDTTTLQQHLVDGRDMIIIRMPKDFPPFPQKLKFREPQREERICLVTTNFQTKSMSSMVSDTSCTFPSGDGIFWKHWIQTKDGQCGSPLVSTRDGFIVGIHSASNFTNTNNYFTSVPKNFMELLTNQEAQQWVSGWRLNADSVLWGGHKVFMVKPEEPFQPVKEATQL [Y12G] | 0.0606 | 0.057 | 0.0932 | 0.0608 | 0.0789 | 0.067 | 0.0701 | 0.0712 | 0.0635 | 0.0548 | 0.0711 | 0.0472 | 0.0794 | 0.0731 | 0.0583 |  |  |  | 
2 | MGESLFKGPRDYNDISSSICHLTNESDGHTTSLYGIGFGPFIITNKHLFRRNNGTLVVQSLHGVFKVKDTTTLQQHLVDGRDMIIIRMPKDFPPFPQKLKFREPQREERICLVTTNFQTKSMSSMVSDTSCTFPSGDGIFWKHWIQTKDGQCGSPLVSTRDGFIVGIHSASNFTNTNNYFTSVPKNFMELLTNQEAQQWVSGWRLNADSVLWGGHKVFMVKPEEPFQPVKEATQL [P14D] | 0.0672 | 0.0615 | 0.0654 | 0.0837 | 0.058 | 0.0751 | 0.0777 | 0.0919 | 0.0575 | 0.062 |  | 0.0657 |  |  | 0.0915 | 0.0697 | 0.0785 | 0.0914 | 0.108
3 | MGESLFKGPRDYNGISSSICHLTNESDGHTTSLYGIGFGPFIITNKHLFRRNNGTLVVQSLHGVFKVKDTTTLQQHLVDGRDMIIIRMPKDFPPFPQKLKFREPQREERICLVTTNFQTKSMSSMVSDTSCTFPSGDGIFWKHWIQTKDGQCGSPLVSTRDGFIVGIHSASNFTNTNNYFTSVPKNFMELLTNQEAQQWVSGWRLNADSVLWGGHKVFMVKPEEPFQPVKEATQL [P14G] | 0.0646 | 0.0539 | 0.0679 | 0.09 | 0.0765 | 0.0442 | 0.0534 | 0.0816 | 0.0688 |  | 0.0749 | 0.0671 |  | 0.0758 | 0.0886 |  | 0.0877 |  | 0.075
4 | MGESLFKGPRDYNNISSSICHLTNESDGHTTSLYGIGFGPFIITNKHLFRRNNGTLVVQSLHGVFKVKDTTTLQQHLVDGRDMIIIRMPKDFPPFPQKLKFREPQREERICLVTTNFQTKSMSSMVSDTSCTFPSGDGIFWKHWIQTKDGQCGSPLVSTRDGFIVGIHSASNFTNTNNYFTSVPKNFMELLTNQEAQQWVSGWRLNADSVLWGGHKVFMVKPEEPFQPVKEATQL [P14N] | 0.0693 | 0.0686 |  | 0.0893 |  | 0.0579 | 0.0667 |  | 0.0673 |  | 0.0761 | 0.0491 |  |  | 0.0493 | 0.0809 | 0.117 | 0.0582 | 0.0551
5 | MGESLFKGPRDYNPISSEICHLTNESDGHTTSLYGIGFGPFIITNKHLFRRNNGTLVVQSLHGVFKVKDTTTLQQHLVDGRDMIIIRMPKDFPPFPQKLKFREPQREERICLVTTNFQTKSMSSMVSDTSCTFPSGDGIFWKHWIQTKDGQCGSPLVSTRDGFIVGIHSASNFTNTNNYFTSVPKNFMELLTNQEAQQWVSGWRLNADSVLWGGHKVFMVKPEEPFQPVKEATQL [S18E] | 0.0473 | 0.028 | 0.0572 | 0.0768 |  | 0.0635 | 0.0784 |  | 0.0568 | 0.0525 | 0.0916 | 0.0527 |  |  | 0.0721 | 0.0753 |  |  | 
6 | MGESLFKGPRDYNPISSWICHLTNESDGHTTSLYGIGFGPFIITNKHLFRRNNGTLVVQSLHGVFKVKDTTTLQQHLVDGRDMIIIRMPKDFPPFPQKLKFREPQREERICLVTTNFQTKSMSSMVSDTSCTFPSGDGIFWKHWIQTKDGQCGSPLVSTRDGFIVGIHSASNFTNTNNYFTSVPKNFMELLTNQEAQQWVSGWRLNADSVLWGGHKVFMVKPEEPFQPVKEATQL [S18W] | 0.0429 | 0.0629 | 0.0631 | 0.066 |  | 0.0628 | 0.0669 | 0.0803 |  | 0.0656 | 0.0649 | 0.077 |  |  | 0.0877 | 0.058 |  | 0.0642 | 
7 | MGESLFKGPRDYNPISSSMCHLTNESDGHTTSLYGIGFGPFIITNKHLFRRNNGTLVVQSLHGVFKVKDTTTLQQHLVDGRDMIIIRMPKDFPPFPQKLKFREPQREERICLVTTNFQTKSMSSMVSDTSCTFPSGDGIFWKHWIQTKDGQCGSPLVSTRDGFIVGIHSASNFTNTNNYFTSVPKNFMELLTNQEAQQWVSGWRLNADSVLWGGHKVFMVKPEEPFQPVKEATQL [I19M] | 0.0738 | 0.0629 | 0.0362 | 0.0818 | 0.072 | 0.0774 | 0.0816 | 0.0793 | 0.0641 | 0.0663 |  | 0.0699 |  | 0.0525 | 0.0554 | 0.0588 | 0.0773 | 0.0685 | 0.106
8 | MGESLFKGPRDYNPISSSNCHLTNESDGHTTSLYGIGFGPFIITNKHLFRRNNGTLVVQSLHGVFKVKDTTTLQQHLVDGRDMIIIRMPKDFPPFPQKLKFREPQREERICLVTTNFQTKSMSSMVSDTSCTFPSGDGIFWKHWIQTKDGQCGSPLVSTRDGFIVGIHSASNFTNTNNYFTSVPKNFMELLTNQEAQQWVSGWRLNADSVLWGGHKVFMVKPEEPFQPVKEATQL [I19N] | 0.0893 | 0.0456 | 0.055 | 0.0723 |  | 0.0731 | 0.0606 | 0.0539 | 0.0538 | 0.0495 | 0.0466 | 0.0395 |  | 0.0663 | 0.0527 | 0.0705 |  | 0.0349 | 0.0543
9 | MGESLFKGPRDYNPISSSSCHLTNESDGHTTSLYGIGFGPFIITNKHLFRRNNGTLVVQSLHGVFKVKDTTTLQQHLVDGRDMIIIRMPKDFPPFPQKLKFREPQREERICLVTTNFQTKSMSSMVSDTSCTFPSGDGIFWKHWIQTKDGQCGSPLVSTRDGFIVGIHSASNFTNTNNYFTSVPKNFMELLTNQEAQQWVSGWRLNADSVLWGGHKVFMVKPEEPFQPVKEATQL [I19S] | 0.0672 | 0.0636 |  |  |  |  | 0.0584 |  | 0.054 |  |  | 0.0616 |  |  | 0.0625 |  |  |  | 
